T1: human GIP receptor (human, UniProt P48546 22-466)
T1 sequence (looked up): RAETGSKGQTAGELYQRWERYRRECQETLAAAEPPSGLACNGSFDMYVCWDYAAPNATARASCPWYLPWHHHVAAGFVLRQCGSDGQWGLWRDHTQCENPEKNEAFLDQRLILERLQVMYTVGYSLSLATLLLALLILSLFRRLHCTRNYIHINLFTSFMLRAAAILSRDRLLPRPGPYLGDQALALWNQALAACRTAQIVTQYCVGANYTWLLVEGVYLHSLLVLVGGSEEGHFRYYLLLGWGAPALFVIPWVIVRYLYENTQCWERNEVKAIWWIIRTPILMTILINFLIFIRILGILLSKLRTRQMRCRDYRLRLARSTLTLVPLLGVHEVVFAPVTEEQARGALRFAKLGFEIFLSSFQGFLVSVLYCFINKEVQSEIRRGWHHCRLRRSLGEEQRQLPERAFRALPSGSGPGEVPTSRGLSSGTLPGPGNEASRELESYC


Experiments:
human GIP receptor = biological target: T1, human GIP receptor; assay: cell-based or functional assay
human GLP-1 receptor = human GLP-1 receptor (human, UniProt P43220); assay: cell-based or functional assay

GIP EC50(nmol/L), CRE-luciferase reporter (human GIP receptor) [nmol/L] | GLP-1 EC50(nmol/L), CRE-luciferase reporter (human GLP-1 receptor) [nmol/L] | Binder
0.055 | 0.515 | 12C3-F fusion protein (Fc fusion) YGEGTFTSDYSIYLDKIAQKAFIEWLIAGGPSSGAPPPSGGGGSGGGGSGGGGSA[letters of human IgG4 Fc with S228P F234A L235A (EU numbers) left out]GGGGSGGGGSGGGGSHPIPDSSPLLQFGGQVRQVYLYTDDAQQTEAHLEIREDGTVGGAADQSPESLLQLKALKPGVIQILGVKTSRFLCQRPDGALYGSLHFDPEACSFRERLLEDGYNVYQSEAHGLPLHLPGNKSPHRDPAPRGPARFLPLPGLPPALPEPPGILAPQPPDVGSSDPLSMVGNSTGRSPSYAS
0.064 | 0.83 | 12C1-F fusion protein (Fc fusion) YGEGTFTSDYSILLDKIAQKAFIEWLIAGGPSSGAPPPSGGGGSGGGGSGGGGSA[letters of human IgG4 Fc with S228P F234A L235A (EU numbers) left out]GGGGSGGGGSGGGGSHPIPDSSPLLQFGGQVRQVYLYTDDAQQTEAHLEIREDGTVGGAADQSPESLLQLKALKPGVIQILGVKTSRFLCQRPDGALYGSLHFDPEACSFRERLLEDGYNVYQSEAHGLPLHLPGNKSPHRDPAPRGPARFLPLPGLPPALPEPPGILAPQPPDVGSSDPLSMVGNSTGRSPSYAS
0.006 | 0.642 | 12C12-F fusion protein (Fc fusion) HSEGTFTSDYSILLDKIAQKAFIEWLIAGGPSSGAPPPSGGGGSGGGGSGGGGSA[letters of human IgG4 Fc with S228P F234A L235A (EU numbers) left out]GGGGSGGGGSGGGGSHPIPDSSPLLQFGGQVRQVYLYTDDAQQTEAHLEIREDGTVGGAADQSPESLLQLKALKPGVIQILGVKTSRFLCQRPDGALYGSLHFDPEACSFRERLLEDGYNVYQSEAHGLPLHLPGNKSPHRDPAPRGPARFLPLPGLPPALPEPPGILAPQPPDVGSSDPLSMVGNSTGRSPSYAS
0.036 | 0.255 | 12C11-F fusion protein (Fc fusion) HGEGTFTSDYSIYLDKIAAKDFIEWLIAGGPSSGAPPPSGGGGSGGGGSGGGGSA[letters of human IgG4 Fc with S228P F234A L235A (EU numbers) left out]GGGGSGGGGSGGGGSHPIPDSSPLLQFGGQVRQVYLYTDDAQQTEAHLEIREDGTVGGAADQSPESLLQLKALKPGVIQILGVKTSRFLCQRPDGALYGSLHFDPEACSFRERLLEDGYNVYQSEAHGLPLHLPGNKSPHRDPAPRGPARFLPLPGLPPALPEPPGILAPQPPDVGSSDPLSMVGNSTGRSPSYAS
